Laboratory results as given in patent US20220073643A1 (NANJING GENSCRIPT BIOTECH, published 2022).

B1: humanized 237D2A4-VH1.5 + VL1 (antibody, human IgG1, kappa)
heavy: QVQLQESGPGLVKPSETLSLTCTVSGFSLTSYGVSWVRQPPGKGLEWLGVIWGDGSTNYHSTLISRLTISKDTSKNQFSLKLSSVTAADTAVYYCAKAGRGNALDYWGQGTLVTVSS[human IgG1 constant region not printed]
light: DIVMTQSPDSLAVSLGERATINCKSSQSLLNSGNQKNYLTWYQQKPGQPPKLLIYWASTRESGVPDRFSGSGSGTDFTLTISSLQAEDVAVYYCQNDYSFPLTFGGGTKLEIKRTVAAPSVFIFPPSDEQLKSGTASVVCLLNNFYPREAKVQWKVDNALQSGNSQESVTEQDSKDSTYSLSSTLTLSKADYEKHKVYACEVTHQGLSSPVTKSFNRGEC
notes: humanized, human IgG1/kappa constant regions
B2: humanized 237D2A4-VH1.5 + VL1.1 (antibody, human IgG1, kappa)
heavy: QVQLQESGPGLVKPSETLSLTCTVSGFSLTSYGVSWVRQPPGKGLEWLGVIWGDGSTNYHSTLISRLTISKDTSKNQFSLKLSSVTAADTAVYYCAKAGRGNALDYWGQGTLVTVSS[human IgG1 constant region not printed]
light: DIVMTQSPDSLAVSLGERATMSCKSSQSLLNSGNQKNYLTWYQQKPGQPPKLLIYWASTRESGVPDRFSGSGSGTDFTLTISSLQAEDVAVYYCQNDYSFPLTFGGGTKLEIKRTVAAPSVFIFPPSDEQLKSGTASVVCLLNNFYPREAKVQWKVDNALQSGNSQESVTEQDSKDSTYSLSSTLTLSKADYEKHKVYACEVTHQGLSSPVTKSFNRGEC
notes: as for B1

Target: T1, human Claudin18.2 (human)
T1 construct: also called CLDN18.2
Assay: FACS, Claudin18.2-HEK293 cells
Description: The binding of chimeric antibodies to Claudin18.2 expressed on HEK293 cells was determine by FACS analysis. Briefly, HEK293 cells expressing human Claudin18.2 as prepared in the foregoing Example were harvested and incubated with anti-Claudin18.2 mAbs at 4° C. for 40 min, followed by fluorophore (iFluor 647)-labeled goat […] IgG (H+L) secondary antibodies at 4° C. for 0.5 hour. The samples were then analyzed by flow cytometry.
After initial screening of cell binding with transfected supernatants, the binding pattern of chimeric and up to 3 humanized antibodies on Claudin18.2 expressed on HEK293 cells were plotted with antibody in 3× serial dilutions, starting concentration of 45 μg/ml, following the protocol described in Example 3.

Binder	EC50 [µg/mL]	Span
B1	0.249	15400
B2	0.218	15500
